# According to PubChem BioAssay AID1362 (SRMLSC, 2008):
# This is one part of the list. Further columns of the screen follow, without active or inactive calls. The list favours compounds with an active or inconclusive main result.
# Experiment: growth inhibition of WT strain, primary screen, mitochondrial fusion inhibitor project, WT and mutant strains, chemical genetic (AID 1362); further: tested in S. cerevisiae
# Settings: mitochondrial fusion phenotypic screen, at 10 µM
row,Compound,inhibition [%]
1,COc1ccc(C(=O)O/N=C(\C)c2ccccc2)cc1,71.2
2,Cc1ccc(-c2nc3cc(NS(=O)(=O)c4ccc(C)cc4)ccc3o2)cc1,49.2
3,COc1ccc(-c2csc3nc(C)nc(N4CCC(C)CC4)c23)cc1OC,18.8
4,COc1ccc(C(=O)N(Cc2nc(-c3ccc(C)cc3)no2)C2CCCCC2)cc1OC,2.75
5,Cc1ccccc1Nc1scc(-c2ccc(Cl)cc2)[n+]1-c1ccccc1C,7.22
6,CCCc1nn(C)c(C(=O)Nc2ccc(C(C)(C)C)cc2)c1Cl,18.7
7,COCCN(C(=S)Nc1cc(C)cc(C)c1)C(C)c1ccco1 (stereo not given),30.1
8,CCCCOc1c(Br)cc(/C=N/O)cc1OCC,13.8
9,Cc1nn(-c2ccccc2)c(N)c1N=Nc1ccc(Cl)cc1,79.3
10,CCc1ccc(C(=O)/C=C/c2ccc([N+](=O)[O-])o2)cc1,41.1
11,Cc1cccn2c(=O)c(C=NCc3ccco3)c(Nc3ccc(SC(F)F)cc3)nc12,2.26
12,Cc1cc(Nc2ccccc2)c2c([N+](=O)[O-])cc(C)c(C)c2n1,4.1
13,Cc1ccc(-c2nn(-c3ccccc3)cc2CSC(=N)N)cc1,-0.33
14,CCOC(=O)C1CCN(C(=O)Cc2ccc(OC)c(OC)c2)CC1,1.18
15,O=[N+]([O-])c1ccc(NC(=S)NCCc2ccccc2)cc1,73.8
16,O=C(Nc1ccc2snnc2c1)Nc1cccc2ccccc12,70.2
17,O=C(Oc1ccc2cc(Br)ccc2c1)N1CCCCCC1,19.4
18,Cc1cc(Oc2ccc(C(C)(C)C)cc2)nc(N2CCOCC2)n1,16.8
19,O=c1c2cn[nH]c2nc(SCc2ccccc2F)n1-c1ccc(Br)cc1,16.7
20,NC(=O)c1ccsc1NC(=O)COC(=O)Cc1cccc2ccccc12,70.6
21,Cc1cccc(C)c1OCCNC(=O)c1ccc2ccccc2n1,43.4
22,CN1/C(=C\C(=S)Nc2ccccc2)C(C)(C)c2ccccc21,33.6

row,Compound,inhibition [%]
1,COc1ccc2c(c1)-c1nc(NC(=O)c3cccs3)sc1CC2,32.4
2,CN(C)CCCN(C(=O)c1sc2ccccc2c1Cl)c1nc2ccc(F)cc2s1,44.9
3,Cc1nn(CCc2nn[nH]n2)c2nc(-c3ccc(C4CCCCC4)cc3)cc(C(F)(F)F)c12,61.1
4,CC1(c2ccc([N+](=O)[O-])cc2)CC(C)(C)N(C(=O)c2ccccc2)c2ccccc21 (stereo not given),21
5,COc1ccc2ccc3c(c2c1)N=C[C@]1(O3)N(C)c2ccccc2C1(C)C,6.69
6,CNc1ccccc1C(C)(C)c1cc(-c2cccc(OC)c2)no1,18.7
7,CCN(CC1COc2ccccc2O1)C(=S)NC1CC2CCC1C2 (stereo not given),25.1
8,C=CCN=c1scc(-c2ccccc2)n1/N=C/c1ccccn1,34.9
9,CCCCn1c(O)c(N=Nc2ccccn2)c2ccccc21,51.2
10,C=CCN1C(=O)/C(=C/c2ccc(OC(C)=O)c(OCC)c2[N+](=O)[O-])SC1=S,95.4
11,O=C1c2ccccc2-c2onc3ccc(NCc4ccco4)c1c23,52.7
12,c1csc(C(c2nnnn2C2CCCC2)N2CCCC3(CCCCC3)C2)c1 (stereo not given),2.63
13,CCOc1ccc(NCc2nnc(SCc3ccc(Cl)cc3)n2-c2ccccc2)cc1,-6.96
14,Cc1ncsc1C(=O)N1N=C2/C(=C/c3ccccc3)CCCC2C1c1ccccc1 (stereo not given),7.47
15,CCCCCCCCn1cnc2c(N)c(C)c(C)cc21,52.8
16,CCCN1Cc2cccc(C(=O)NC(CC(=O)OCC)c3ccc(C)cc3)c2C1=O (stereo not given),41.5
17,Nc1nc(CSc2ccc(Cl)cc2)nc(N2CCCCC2)n1,42.8
18,O=C(CN1CCN(c2ccccn2)CC1)N1c2ccccc2Sc2ccc(C(F)(F)F)cc21,-3.88
19,O=C(Nn1c(-c2ccccc2)nc2ccccc2c1=O)C1CCC1,-11.4
20,CCCn1nc([N+](=O)[O-])c(C(C#N)c2nc3ccccc3s2)c(Cl)c1=O (stereo not given),67.2
21,Cn1c(=O)c(NC2CCCCC2)c2c3c(cccc31)C(=O)c1ccccc1-2,6.35
22,CCN(CC)c1ccc(/C=N/NC(=S)NCc2ccco2)cc1,15.4

row,Compound,inhibition [%]
1,CC(=O)Nc1ccc(C(=O)OCc2ccc(Br)cc2)cc1,68.8
2,CCc1nnc(NS(=O)(=O)c2ccc(N=Cc3c(C)[nH]n(-c4ccc(C)c(C)c4)c3=O)cc2)s1,57.9
3,COc1ccc(/C=N/N(Cc2ccccc2)c2ccccc2)cc1O,21.1
4,CCNC(=S)NNC(=O)c1cc(-c2ccc(OC)cc2)nc2ccccc12,64.2
5,COc1ccc(C(C)=O)cc1CSc1nnc(Nc2ccc(C)cc2C)s1,13.2
6,CN(CC(=O)Nc1ccccc1Sc1ccccc1)C1CCCCC1,20.7
7,O=C(CSCc1cnn(-c2ccccc2)c1-n1cccc1)N1CCN(Cc2ccccc2)CC1,40.7
8,Cc1ccc(C(C(=O)NCc2ccccc2)N(Cc2cccs2)C(=O)c2ccc3c(c2)OCCO3)cc1 (stereo not given),22.4
9,CC1(C)C2CCC1(C)C(OC(=O)CC(=O)O)C2 (stereo not given),-12.3
10,CCCCN(CCCC)CCNC(=O)Cc1nc2c(c(=O)[nH]c(=O)n2C)n1C,7.11
11,O=C(N=Nc1c(O)n(Cc2ccccc2)c2ccccc12)c1cc2ccccc2cc1O,19.7
12,CCOC(=O)N1C(=O)C2(CCCCC2)N(c2ccccc2Cl)C1=S,52.4
13,Cc1ccc(-c2cc(-c3ccccc3C)[nH]n2)c(O)c1,53.1
14,Cc1ccc(/C=N/n2cnc3sc(-c4ccccc4)cc3c2=O)o1,19.9
15,c1ccc(CCNc2ncnc3scc(C4COc5ccccc5O4)c23)cc1 (stereo not given),35.7
16,CCCCc1ccc(-c2nc(NC(=O)C3C4CCC(O4)C3C(=O)O)sc2C)cc1 (stereo not given),83
17,COc1ccc(-c2nc(-c3ccccc3)[nH]c(=O)c2C#N)cc1,26.5
18,CC1CN(c2nc3ccccc3nc2C(C#N)C(=O)OC2CCCCC2)CC(C)O1 (stereo not given),28.4
19,CC1CCCCN1c1nnc(NC(=O)c2cc(-c3ccc(Br)cc3)on2)s1 (stereo not given),41.4
20,COc1ccc(-c2nc3c(n2O)CCCC3=O)cc1OC,11.4
21,COc1ccc(C(C(=O)Nc2ccc(F)cc2)N(C(=O)Cn2nnc3ccccc32)C2CC2)cc1 (stereo not given),7.97
22,O=C(NC(=S)Nc1nc2c(s1)CSc1ccccc1-2)c1ccccc1,71.2

row,Compound,inhibition [%]
1,FC(F)Sc1ccc(NC(=S)NC(c2ccccc2)c2ccccc2)cc1,42.4
2,Cc1nn(-c2nc3ccccc3[nH]2)c(N)c1-c1ccccc1,66.8
3,CCOC(=O)c1cnc(-n2nc(C)cc2C)nc1NCCc1ccccc1,64.3
4,O=C1c2ccccc2C(=O)N1CC#CCN1CCN(C(c2ccccc2)c2ccccc2)CC1,33.9
5,COc1ccccc1CNC(=O)c1ccc(-c2ccccc2C(F)(F)F)o1,-11.3
6,COc1ccc(NC(=O)CNc2cccc(C#N)c2)cc1Cl,20.7
7,CC1=[N+](C)c2c(ccc3cccnc23)C1(C)C,63
8,Cc1cc2c(cc1C)CSC(c1c(O)ccc3ccccc13)SC2,93.2
9,O=C(CSc1nnnn1-c1ccccc1)NCc1cccs1,-13.5
10,CC(C)Nc1nc(NC(C)C)nc(SCCOC(=O)Nc2ccc(Cl)cc2Cl)n1,55.2
11,O=C(NCCCn1ccnc1)C(Cc1ccccc1)N1C(=O)c2ccccc2C1=O (stereo not given),39.1
12,CCOc1cccc(-c2nnc3sc(C4CCCCC4)nn23)c1,66
13,Cc1cc(N2CCN(C(=O)c3ccco3)CC2)n2ncc(-c3ccccc3)c2n1,87.8
14,CC(=O)Nc1ccc(S(=O)(=O)N2CCSC2c2ccc(Cl)cc2)cc1 (stereo not given),18.2
15,O=C(COC(=O)C12CC3CC(CC(O)(C3)C1)C2)Nc1ccccc1OC(F)F,16.9
16,O=C(c1cccc(Br)c1)c1conc1C(=O)c1ccco1,23.4
17,O=C(NCc1ccc(Cl)cc1)c1ccccc1Oc1ccccc1,21.6
18,COc1ccccc1NC(=O)CN1CCN(CC(=O)Nc2ccc(OCc3ccccc3)cc2)CC1,58.4
19,CC(=O)/C(C#N)=C1\NC(=O)C(Cc2ccccc2Cl)S1 (stereo not given),10.9
20,Cc1ccc2c(CSc3nnc(C4CC4)n3N)cc(=O)oc2c1C,4.77
21,COc1cccc(-n2nc(C#N)c(Cl)cc2=O)c1,76.2
22,Cc1cccc(/C=N/Nc2ccc3ccccc3n2)c1,45.4

row,Compound,inhibition [%]
1,Cc1nc(C)c(-c2csc(Nc3ccc(F)cc3)n2)s1,72.3
2,COc1ccc(/C=N/NC(=S)SC)cc1OC,19
3,O=C(c1cc(Br)c(Br)s1)N1CCN(C/C=C/c2ccccc2)CC1,39.4
4,CC1CC(C)CN(C(=O)c2cc3cc(Br)cc(Br)c3o2)C1 (stereo not given),19.3
5,Cc1[nH]n(-c2ccc([N+](=O)[O-])cc2)c(=O)c1C=NCCN1CCN(C(=O)C(C)C)CC1,53.4
6,CC(C)Cn1c(O)c(/C=C2\C=NN=C2c2ccccc2)sc1=S,21.8
7,CCc1ccc(OCC(=O)N2c3ccccc3CCc3ccccc32)cc1,74.4
8,CC(C)C(=O)Nc1ccc(C(=O)NNC(=O)CCCOc2ccc(Cl)cc2Cl)cc1,-3.93
9,CCCCCCCCOC(=O)c1nc(Cl)c(Cl)c(N)c1Cl,22.9
10,COc1ccc(S(=O)(=O)Nc2ccccc2C(=O)Nc2nc(-c3ccc(F)cc3)cs2)cc1OC,12.1
11,Cc1ccc(-n2cc(C(=O)c3ccc(F)cc3)nn2)cc1Cl,-3.45
12,O=C(Oc1cccnc1)c1ccc(Cl)c(Cl)c1,-11.7
13,COC(=O)CN1C(c2cccc(Cl)c2)=Nc2ccc(Cl)cc2C1c1ccccc1 (stereo not given),20.8
14,CCOc1ccccc1C(=O)Nc1cc(OC)ccc1OC,49.8
15,CC(CO)Nc1nc(SCc2ccccc2)nc2sc3c(c12)CCC3 (stereo not given),61.6
16,CCn1c2ccccc2c2nnc(SCc3ccccc3)nc21,39.8
17,COc1ccc(Nc2ncnc3scc(-c4ccc(OC)cc4)c23)cc1,42.9
18,Clc1ccc(OCCOCCN2CCc3ccccc3C2)c(Cl)c1,69.7
19,CCC1CSC(Nc2ccc(C(=O)/C=C/c3ccc(OC)c(OC)c3)cc2)=N1 (stereo not given),30.1
20,S=C(NCc1ccco1)N1CCN(c2ccccc2Cl)CC1,71
21,Cc1ccc(N=Nc2c(C)[nH]n(C(N)=S)c2=O)cc1C,52.7
22,COC(=O)c1ccn(C(=O)c2ccc(Cl)cc2)n1,17.6
